# According to PubChem BioAssay AID624296 (National Center for Advancing Translational Sciences (NCATS), 2012):
# Screen size: about 350,000 compounds; about 9,900 (2.8%) were called active. The inconclusive results got no clear call from the source; some entries with a clear call stand among them for comparison. The call rests on the fitted dose curve; in most records, active means well fitted activation curve with a large enough effect; inconclusive means small, poorly fitted or top-dose-only effect; inactive means no such curve, though single readings can be large or run the other way. No potency is given beside an inconclusive call; the fits are too rough.
# Experiment: A quantitative high throughput screen for small molecules that induce DNA re-replication in MCF 10a normal breast cells. Further: nearly all actives have a fitted effect of over 50% in size. On activity, positive = re-replication: % of control where 0% means no effect.
# Details: MCF 10A DNA re-replication, Hoechst nuclear intensity, 48 h; activity, positive = re-replication: at 46.1 µM (top of the series)
# Potency means the concentration at half of the fitted maximal effect; tags describe the fitted curve by direction and shape.
SMILES,Potency,"activity, positive = re-replication"
COc1ccc(-c2cccc([C@H]3[C@@H]4C=CC[C@@H](C)[C@@H]4C(=O)N3Cc3ccccc3)c2)cc1,"inconclusive [activator, partial curve, poor fit]",
COCCNC(=S)N1CCN(C(=O)C(=O)Nc2ccc(C(=O)OC)cc2)CC1,,inactive: 0.58%
Cc1cccc(C(=O)N2CCc3cc(-c4csc(NC(=O)CN5CCCC5)n4)ccc32)c1,active: 16.4 µM,
Cc1ccc(NC(=O)C2=CCN(S(=O)(=O)c3ccc(F)cc3)CC2)c(C)c1,"inconclusive [activator, single point]",
CCOc1cc(NC(=S)NCC2CCCO2)c(OCC)cc1NC(=O)C1CC1 (configuration not stated),"inconclusive [activator, single point]",
CCOc1cc(/C=N/NC(=O)C(=O)Nc2cc(Cl)ccc2C)ccc1O,"inconclusive [activator, full curve, poor fit]",
Oc1ccccc1C=NNC(=S)Nc1ccc(F)cc1,"inconclusive [activator, single point]",
CC(C)c1ccc(NC(=O)C(c2ccccc2)N2CCC3(CC2)OCCO3)cc1 (configuration not stated),"inconclusive [activator, single point]",
CN1CCCCC1CCN1c2ccccc2Sc2ccc(S(C)=O)cc21 (configuration not stated),"inconclusive [activator, partial curve, poor fit]",
Cc1cccc(C(=O)NC(NCCc2ccccc2)C(Cl)(Cl)Cl)c1 (configuration not stated),"inconclusive [activator, single point]",
Cc1ccc(NC(=S)N/N=C/c2cccn2Cc2ccccc2F)cc1,,inactive: 1.68%
CCOC(=O)C1=C(C)OC(N)=C(C#N)C1c1cc(SCC)oc1C (configuration not stated),"inconclusive [activator, partial curve, poor fit]",
COc1cc(NS(=O)(=O)c2ccc(NC(=O)C3CCCO3)cc2)nc(OC)n1 (configuration not stated),,inactive: -14.1%
COc1c2ccccc2c(OC)c2ccccc12,"inconclusive [activator, single point]",
COc1ccc(NC(=O)c2cc(-c3cccnc3)nc3ccc(C)cc23)cc1OC,"inconclusive [activator, partial curve, poor fit]",
Cc1onc(-c2ccccc2)c1C(=O)O/N=C(\N)c1ccc([N+](=O)[O-])o1,"inconclusive [activator, single point]",
Cc1ccc(-c2nc(NC(=O)c3nn(C)cc3[N+](=O)[O-])sc2C)cc1,"inconclusive [activator, partial curve, poor fit]",
COc1ccc(Cl)cc1NC(=O)CCN1CCN(C)CC1,,inactive: -6.1%
COc1ccccc1Cn1c(=S)[nH]c2ccc(F)cc2c1=O,,inactive: 2.21%
Cc1ccc2cc(C)c(SCC(=O)NCc3ccco3)nc2c1,"inconclusive [activator, single point]",
Cc1ccccc1OCC(=O)Nc1ccccc1N1CCCCC1,"inconclusive [activator, single point]",
Nc1c(-c2ccc3c(c2)OCCO3)oc2ccccc2c1=O,active: 18.4 µM,
COc1ccc(S(=O)(=O)NC(C)C(=O)Nc2cccc([N+](=O)[O-])c2)cc1 (configuration not stated),"inconclusive [activator, full curve, poor fit]",

SMILES,Potency,"activity, positive = re-replication"
COC(=O)C1=C(N)Oc2cc(C)n(Cc3ccccc3)c(=O)c2C1c1ccccc1 (configuration not stated),"inconclusive [activator, partial curve, poor fit]",
Cc1cc(=O)oc2cc(OCC(=O)N3CCCC3)c(Cl)cc12,,inactive: -1.06%
CCn1c(C)nc2cc(S(=O)(=O)C(F)(F)C(F)C(F)(F)F)ccc21 (configuration not stated),,inactive: -0.188%
CCOc1ccc(C(C)=O)cc1COC(=O)C(C)N=C1NS(=O)(=O)c2ccccc21 (configuration not stated),"inconclusive [activator, single point]",
Cc1cc(C(=O)COC(=O)c2ccc3c(c2)OCO3)c(C)n1CC1CCCO1 (configuration not stated),"inconclusive [activator, partial curve, poor fit]",
O=C(CCn1c(=O)c2cccn2c2ccc(F)cc21)NCc1cccc(F)c1,"inconclusive [activator, partial curve, poor fit]",
Cc1ccc(C)n1-n1c(C)nc2sc(-c3ccccc3)cc2c1=O,,inactive: 15.4%
COc1cccc(CNC(=O)COC(=O)c2cc(Br)c(Br)s2)c1,,inactive: 20.8%
COc1ccc(N=C2SC(CC(=O)Nc3cccc(Cl)c3)C(=O)N2Cc2ccco2)cc1 (configuration not stated),"inconclusive [activator, single point]",
N#C/C(=N\Nc1ccc(Cl)cc1)C(N)=S,"inconclusive [activator, single point]",
COc1ccc(C2NCCc3c2[nH]c2ccccc32)cc1COc1ccc(F)cc1 (configuration not stated),active: 18.4 µM,
CC(CCc1ccccc1)NC(=O)CN1CCN(c2ccc(O)cc2)CC1 (configuration not stated),"inconclusive [activator, partial curve, poor fit]",
CN(C)CCCNc1nc2sc3c(c2c(=O)n1CCc1ccccc1)CCCCC3,"inconclusive [activator, single point]",
O=C1CC[C@@H](OCc2ccccc2)CCN1CC[C@H](Sc1ccccc1)c1ccccc1,"inconclusive [activator, single point]",
Cc1nc(N2CCN(c3ccccn3)CC2)c2c(C)c(C(=O)Nc3ccc(F)cc3)sc2n1,"inconclusive [activator, full curve]",
CCCSc1nsc(NC(=O)CC)n1,,inactive: -1.03%
O=C(NN1CCN(Cc2ccccc2)CC1)c1ccc(N2CCOCC2)c([N+](=O)[O-])c1,,inactive: 6.06%
Cc1cc(C)c(S(=O)(=O)NCc2ccc3c(c2)cc(C)n3C)c(C)c1,"inconclusive [activator, single point]",
O=C(NCCNc1ccc([N+](=O)[O-])cc1)c1cccs1,"inconclusive [activator, single point]",
COc1ccc(N2CCN(C(=O)NCc3ccc(C)cc3)CC2)cc1,"inconclusive [activator, partial curve, poor fit]",
O=C(C1=C[C@H](c2ccc(C(F)(F)F)cc2)C[C@H](OCc2ccc(CO)cc2)O1)N1CCN(Cc2ccc3c(c2)OCO3)CC1,"inconclusive [activator, partial curve, poor fit]",
Cc1csc(NC(=O)Cc2c(F)cccc2Cl)n1,"inconclusive [activator, single point]",
O=C(Cc1cccc(NC(=O)C2CCN(C(=O)C3CCCCC3)CC2)c1)Nc1cccc(C(=O)N2CCOCC2)c1,"inconclusive [activator, partial curve, poor fit]",

SMILES,Potency,"activity, positive = re-replication"
O=C(Nc1cc(Cl)ccc1-n1cncn1)c1ccc([N+](=O)[O-])s1,active: 20.6 µM,
CCC1S/C(=N/N=C/c2cccs2)NC1=O (configuration not stated),,inactive: -6.21%
Cc1ccc(NC(=O)COC(=O)CSC(=S)N2CCOCC2)cc1,,inactive: 2.2%
CCCC12C(=O)C(C)(C(c3ccccc3)=C1c1ccccc1)C1C(=O)N(c3ccc(C)cc3)C(=O)C12 (configuration not stated),"inconclusive [activator, partial curve, poor fit]",
CC(c1ccccc1)N1C(=O)c2cccnc2C1=O (configuration not stated),"inconclusive [activator, single point]",
CCOC(=O)c1ccc(Nc2cc3ccccc3c(=O)[nH]2)cc1,"inconclusive [activator, partial curve, poor fit]",
COC(CNC(=O)Cc1c(C)nc2c(-c3ccccc3)c(C)nn2c1C)OC,,inactive: -3.07%
CC(=O)N1c2c(ccc3ccccc23)C(C)CC12CCCCC2 (configuration not stated),"inconclusive [activator, single point]",
CCOc1ccc(NC(=O)N2CCN(S(C)(=O)=O)CC2)cc1,"inconclusive [activator, partial curve, poor fit]",
O=C(NCc1ccccc1)C1=C[C@@H](c2ccccc2)C[C@@H](OCc2ccc(CO)cc2)O1,"inconclusive [activator, partial curve, poor fit]",
COc1ccc(N(CC(=O)Nc2cccc(N(C)S(C)(=O)=O)c2)S(=O)(=O)c2ccc(C)cc2)cc1,"inconclusive [activator, partial curve, poor fit]",
O=c1[nH]c2c(s1)C(c1ccccc1)C1C3CCC(C3)C1S2 (configuration not stated),"inconclusive [activator, single point]",
Cc1oc(-c2cccc(Cl)c2)nc1CN1CCC(C(=O)NCc2ccco2)CC1,,inactive: 7.89%
O=C(COc1ccccc1Cl)NCCC1=CCCCC1,"inconclusive [activator, single point]",
COc1ccc(-c2sc3ccccc3c2C#CC2(O)CCCCC2)cc1,"inconclusive [activator, single point]",
Cc1ccc(N2CCN(C(=O)c3nn(C)c4c3CS(=O)(=O)c3ccccc3-4)CC2C)cc1 (configuration not stated),"inconclusive [activator, partial curve, poor fit]",
O=C(NCCOc1ccc(F)cc1)C1CCC(=O)N(CCN2CCOCC2)C1 (configuration not stated),,inactive: -1.69%
CCOc1cccc(/C=N/NC(=O)c2cccnc2)c1O,,inactive: 3.52%
O=C(OCCOc1ccc(Br)cc1)c1ccc(Cl)c(S(=O)(=O)N2CCOCC2)c1,,inactive: 6.34%
O=C(/C=C/c1cccc(F)c1)NC1CCN(Cc2ccccc2)CC1,,inactive: 2.06%
O=C(NCc1cccc(C(F)(F)F)c1)c1ccc(=O)[nH]c1,,inactive: -0.881%
